{"source": "PubChem BioAssay AID504832", "about": "(National Center for Advancing Translational Sciences (NCATS), 2011)", "note": "The campaign covered roughly 310,000 compounds. About 18,000 (5.8%) were called active. Inconclusive means that the source gave no clear call. Such entries were picked first, then a sample of the others. The call rests on the fitted dose curve; in most records, active means well fitted inhibition curve with a large enough effect; inconclusive means small, poorly fitted or top-dose-only effect, or another doubt; inactive means no such curve, though single readings can be large or run the other way. Potencies of inconclusive entries are left out as doubtful fits. Potency means the concentration at half of the fitted maximal effect; tags describe the fitted curve by direction and shape."}
{"test": "Primary qHTS for delayed death inhibitors of the malarial parasite plastid, 48 hour incubation", "details": "P. falciparum luciferase growth in erythrocytes; series mostly up to 28.7 µM", "in_short": "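Erythrocytes infected with P. falciparum carrying an integrated firefly luciferase reporter (2% hematocrit, 0.1% parasitemia final) were exposed to compounds in RPMI 1640 with 0.5% Albumax at 37 C, 5% CO2. Growth inhibition was scored as reduced luminescence.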"}
{"smiles": "CCCCC(=O)N/N=C/c1c(O)n(CCC2=CCCCC2)c(=O)[nH]c1=O", "Potency": "inconclusive [inhibitor, single point]"}
{"smiles": "C=CCN(C(=O)c1oc2c(Cl)cc(C)cc2c1C)C1CCS(=O)(=O)C1", "note": "(centres undefined)", "Potency": "inactive"}
{"smiles": "N#C/C(=C\\C=C\\c1ccccc1)C(=O)N1CCCC1", "Potency": "active: 7.38 µM"}
{"smiles": "O=S(=O)(c1cccc(NC(=S)N2CCN(c3cccc(Cl)c3)CC2)c1)C(F)F", "Potency": "inconclusive [inhibitor, single point]"}
{"smiles": "CC(C(=O)Nc1ccccc1Br)N1c2cccc3cccc(c23)S1(=O)=O", "note": "(centres undefined)", "Potency": "inconclusive [inhibitor, single point]"}
{"smiles": "CCOc1ccc(NS(=O)(=O)c2ccc(Cl)c(C(=O)N(C)Cc3cccnc3)c2)cc1", "Potency": "inconclusive [inhibitor, single point]"}
{"smiles": "CC(C)CCCCCCNC(=S)Nc1ccc(S(=O)(=O)N2CCOCC2)cc1", "Potency": "inconclusive [inhibitor, single point]"}
{"smiles": "CCn1cc(C(=O)NCCc2ccc(OC)c(OC)c2)c(=O)c2cc(S(=O)(=O)N3CCOCC3)ccc21", "Potency": "active: 10.4 µM"}
{"smiles": "CCN(CC(=O)Nc1c(F)cccc1F)C(=O)CN(C)S(=O)(=O)c1ccc(F)cc1", "Potency": "inconclusive [inhibitor, single point]"}
{"smiles": "O=C(Nc1nnc(C2=COCCO2)o1)c1ccc([N+](=O)[O-])s1", "Potency": "inconclusive [inhibitor, partial curve]"}
{"smiles": "COc1ccc2c(CCNC(=O)Nc3ccccc3)c[nH]c2c1", "Potency": "inactive"}
{"smiles": "COC(=O)C1=C(CN2CCCc3ccccc32)NC(=O)NC1c1ccc(F)cc1", "note": "(centres undefined)", "Potency": "inactive"}
{"smiles": "O=C(Nc1ccccc1N1CCOCC1)c1ccco1", "Potency": "inactive"}
{"smiles": "COC(=O)c1[nH]c2cc(C)ccc2c1NC(=O)CN1CCN(c2ccccc2OC)CC1", "Potency": "inconclusive [inhibitor, partial curve]"}
{"smiles": "CCCCOc1ccccc1C(=O)N(Cc1ccco1)C1CCS(=O)(=O)C1", "note": "(centres undefined)", "Potency": "inactive"}
{"smiles": "N#Cc1ccccc1OCCCN1CCC(Cc2ccccc2)CC1", "Potency": "inconclusive [inhibitor, single point]"}
{"smiles": "COC/C=C/C1=CC2=CC(=O)C(C)(OC(=O)c3cnc4ccccc4n3)C(=O)C2=CN1CCCOC(C)C", "note": "(centres undefined)", "Potency": "inconclusive [inhibitor, full curve, poor fit]"}
{"smiles": "O=C1NCCN(Cc2ccc(Cl)c(F)c2)C1CC(=O)N1CCCCO1", "note": "(centres undefined)", "Potency": "inconclusive [inhibitor, single point]"}
{"smiles": "CCC(C)(C)C1CCC(=NNc2nc3ccccc3[nH]2)CC1", "note": "(centres undefined)", "Potency": "active: 10.4 µM"}
